From PubChem BioAssay AID540267 (National Center for Advancing Translational Sciences (NCATS), 2011)
Hit rate of the full screen: of about 340,000 compounds, about 530 (0.16%) were called active. This list was built around the results that the source calls inconclusive (neither active nor inactive); the mix of calls is not that of the screen. No stated cut-off is given here; in the data, active means activity change below about -80%; inconclusive means between about -30% and that limit; inactive means weaker than that.

assay: Small Molecules that selectively kill Giardia lamblia: qHTS; settings: Giardia lamblia trophozoite viability; at 7.66 µM; hits give low values;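 further: parasites exposed to compound for two days anaerobically before the ATP read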
In short: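 Viability, read as ATP luminescence: trophozoites at 100 cells/well, compound added, 48 hrs anaerobic at 37 deg C, then 15-30 min room-temperature development before reading.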
On the % scale 0 is the no-effect control and ±100 the full control effect.

Compound | activity change
O=C1c2ccccc2C(=O)c2c1cccc2N(CCO)CCO | inconclusive: -40.6% [inhibitor]
C=CCC(CC(O)COCCC)C(=O)NNC(=S)Nc1ccccc1 (stereo unspecified) | inconclusive: -38.4% [inhibitor]
O=C(COC(=O)CN1C(=O)c2ccccc2C1=O)NC1CCCCC1 | inactive: 27.3%
O=C(Nc1ccc2c(c1)OCCO2)c1ccccc1F | inconclusive: -31% [inhibitor]
CSc1nc(-c2ccccc2)c(C#N)c(=O)[nH]1 | inconclusive: -31.8% [inhibitor]
O=C(CN1C(=O)c2ccccc2C1=O)OCc1nc2ccsc2c(=O)[nH]1 | inconclusive: -37.1% [inhibitor]
O=[N+]([O-])c1cc(S(=O)(=O)N2CCOCC2)ccc1NS(=O)(=O)c1ccccc1 | inconclusive: -60.8% [inhibitor]
Cc1ccc(C)c(OCCCC(=O)O)c1 | inconclusive: -34.1% [inhibitor]
CC(C)C(=O)N1CCC(c2nc(-c3ccc(S(=O)(=O)N4CCN(C)CC4)cc3)no2)CC1 | inactive: 10.4%
COC(=O)c1ccc(C2c3c(n[nH]c3C)C(=O)N2c2ccc(C)cc2)cc1 (stereo unspecified) | inconclusive: -32.2% [inhibitor]
O=[N+]([O-])c1ccc(/C=N/Nc2nc(N3CCCC3)nc(N3CCCC3)n2)o1 | active: -94.6%
CCCCCn1c(-c2ccco2)nc2nc3ccccc3nc21 | inactive: -11.4%
Cc1ccc2c(c1)[C@@H](O)C[C@@H](C)N2N=O | inconclusive: -42.5% [inhibitor]
CCCCC(=O)Nc1cnc(NC(=O)c2cccs2)cc1C | inconclusive: -37.1% [inhibitor]
CCCNC(=O)c1oc2ccc3c(c2c1C)C(=O)CC(C)(C)O3 | inconclusive: -41.7% [inhibitor]
Cc1cc(-c2nnc(SCC(=O)Nc3nc(-c4ccccc4)cs3)o2)no1 | inconclusive: -32.2% [inhibitor]
CCN(CC)c1ccc(/C=N/NC(=O)c2ccc([N+](=O)[O-])cc2)cc1 | inactive: -0.707%
CCCOc1ccc(C2C(C(=O)/C=C/c3ccco3)=C(O)C(=O)N2CCN2CCOCC2)cc1OC (stereo unspecified) | inactive: 0.036%
O=C(Nc1cccc(Cl)c1)C1C2C=CC3(O2)C1C(=O)N(CCCN1CCCCC1)C3C(=O)NC1CCCCC1 (stereo unspecified) | inconclusive: -43% [inhibitor]
CCOc1ccccc1CNC(=O)C1CCCN(c2nn3c(=O)cc(C)nc3s2)C1 (stereo unspecified) | inconclusive: -35.8% [inhibitor]
CCOc1ccc(NC(=O)C(C)C(Cc2ccc(C)cc2)C(=O)O)cc1 (stereo unspecified) | inconclusive: -55.7% [inhibitor]
